The target of this assay is HLA-A*0201 molecules on T2 cells (CEMX721.174.T2) (human). The assay is described as follows: cell-based or functional assay.

Results on two molecules are retold here after patent publication US20040077548A1 (CHANCELLORS MASTERS AND SCHOLARS OF THE UNIVERSITY OF OXFORD, published 2004).

Take SLLMWITQCFL [NY-ESO-1 157-167 peptide SLLMWITQCFL (SEQ ID NO: 1)]: the Relative competitor activity is 0.04 ratio to FluMA 58-66. The result for QLSLLMWIT [NY-ESO-1 155-163 peptide QLSLLMWIT (SEQ ID NO: 3)] reads 0.01 ratio to FluMA 58-66.
